Measured values published in the supplement of paper PMC4967469.
pIC50: −log10 of the molar value. IC50 is the fitted dose that halves viability relative to control wells, and lower means more sensitive; a fit beyond the top or the lowest dose is shown as a bound at that dose. AUC, from the same fit, is the share of area under the viability curve across the 256-fold dose range; the more sensitive the line, the further below 1. For part of these data: Where the top dose is marked as inferred, it comes from the curve model; the source does not state it.

Columns and labels:
Assay in all cases: Viability of human cancer cell lines after 72 h of drug (GDSC screen)
[1] = compound: CN1CCc2c(c3ccccc3n2Cc2ccc(C(=O)NO)cc2)C1 [Tubastatin A]; settings: top dose 20 µM
Method: (§1)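 Human cancer cell lines in 384-well plates, medium with 10% serum, drug for 72 h over a 256-fold dose range (nine 2-fold or five 4-fold steps up to the top dose). Adherent lines were fixed and stained with the nucleic acid dye Syto60, suspension lines read with resazurin; signal relative to control wells, capped at 0 and 100%. One two-parameter sigmoid per drug and line, fitted in a mixed model over all curves with the slope shared within a line.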

[2] = compound: Oc1ccc2ccccc2c1SSc1c(O)ccc2ccccc12 [IPA-3]; settings: top dose 32 µM; top dose inferred
Method: as §1

[3] = compound: O=C(NOCC1CC1)c1ccc(F)c(F)c1Nc1ccc(I)cc1Cl [CI-1040]; settings: top dose 10 µM; top dose inferred
Method: as §1

[4] = compound: CN(C)C/C=C/C(=O)Nc1ccc(C(=O)Nc2cccc(Nc3nccc(-c4cccnc4)n3)c2)cc1 [ZG-10]; settings: top dose 10 µM; top dose inferred
Method: as §1

[5] = compound: COc1cc2c(Oc3ccc(NC(=O)C4(C(=O)Nc5ccc(F)cc5)CC4)cc3F)ccnc2cc1OCCCN1CCOCC1 [XL-880]; settings: top dose 5.12 µM; top dose inferred
Method: as §1

[6] = compound: Cn1nnc2c(C(N)=O)ncn2c1=O [Temozolomide]; settings: top dose 30 µM
Method: as §1

Row | Cell Line | AUC [1] | pIC50 [1] | AUC [2] | pIC50 [2] | AUC [3] | pIC50 [3] | AUC [4] | pIC50 [4] | AUC [5] | pIC50 [5] | AUC [6] | pIC50 [6]
1 | CAL-62 (thyroid, adherent) | 0.948 | < 4.70 | 0.767 | 4.95 | 0.608 | 5.91 | 0.581 | 5.99 | 0.826 | 5.54 | 0.975 | < 4.52
2 | SW1710 (bladder, adherent) | 0.972 | < 4.70 | 0.561 | 5.53 | 0.822 | 5.22 | 0.655 | 5.77 | 0.61 | 6.19 | 0.978 | < 4.52
3 | FTC-133 (thyroid, adherent) | 0.984 | < 4.70 | 0.981 | < 4.49 | 0.848 | 5.07 | 0.772 | 5.37 | 0.98 | < 5.29 | 0.946 | < 4.52
4 | RO82-W-1 (thyroid, adherent) | 0.957 | < 4.70 | 0.965 | < 4.49 | 0.863 | < 5.00 | 0.659 | 5.71 | 0.751 | 5.67 | 0.973 | < 4.52
5 | JHU-022 (head and neck, adherent) | 0.981 | < 4.70 | 0.981 | < 4.49 | 0.685 | 5.62 | 0.728 | 5.47 | 0.727 | 5.77 | 0.979 | < 4.52
6 | G-MEL (melanoma, adherent) | 0.982 | < 4.70 | 0.986 | < 4.49 | 0.23 | 6.98 | 0.804 | 5.31 | 0.693 | 5.96 | 0.982 | < 4.52
7 | MOG-G-UVW (glioma, adherent) | 0.94 | < 4.70 | 0.965 | < 4.49 | 0.825 | 5.24 | 0.706 | 5.63 | 0.587 | 6.26 | 0.933 | < 4.52
8 | NCI-H1651 (lung adenocarcinoma, adherent) | 0.984 | < 4.70 | 0.946 | < 4.49 | 0.956 | < 5.00 | 0.896 | < 5.00 | 0.852 | 5.35 | 0.982 | < 4.52
9 | JEG-3 (urogenital system, adherent) | 0.989 | < 4.70 | 0.875 | 4.58 | 0.937 | < 5.00 | 0.908 | < 5.00 | 0.991 | < 5.29 | 0.985 | < 4.52
10 | SK-MES-1 (lung squamous cell carcinoma, adherent) | 0.948 | < 4.70 | 0.75 | 4.95 | 0.802 | 5.26 | 0.882 | < 5.00 | 0.775 | 5.66 | 0.981 | < 4.52
11 | NCI-H1563 (lung adenocarcinoma, adherent) | 0.981 | < 4.70 | 0.985 | < 4.49 | 0.891 | < 5.00 | 0.816 | 5.16 | 0.77 | 5.64 | 0.983 | < 4.52
